# Assay results from the supplement of paper PMC4166925.
# ± gives the standard deviation of the averaged measurements. Over roughly 33,000 sequences, “E-score (dimensionless, -0.5 to 0.5)” has its median near -0.046; the highest 2% begin near 0.36. The list shows a part of the results.
# System: T1, SpTbr T-box DNA-binding domain (GST fusion)
# T1 sequence: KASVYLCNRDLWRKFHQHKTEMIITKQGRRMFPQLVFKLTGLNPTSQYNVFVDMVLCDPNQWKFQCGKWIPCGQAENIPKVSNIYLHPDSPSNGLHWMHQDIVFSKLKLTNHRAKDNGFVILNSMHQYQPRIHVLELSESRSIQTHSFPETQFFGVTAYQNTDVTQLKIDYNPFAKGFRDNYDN
# Assay: PBM E-score of 8-mer (E-score (dimensionless, -0.5 to 0.5)); Tbr is Tbrain of the sea star Patiria miniata (Pm) or the sea urchin Strongylocentrotus purpuratus (Sp); higher = stronger binding preference; most listed sequences are background and not binding sites
# Conditions: the construct has about 5 more residues each side
# Experimental: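 Universal protein-binding microarray (Agilent AMADID 016060, 60-bp probes with a 35-bp variable region) incubated with 200 nM GST-fused Strongylocentrotus purpuratus Tbr T-box DNA-binding domain (residues 362-554) in PBS pH 7.5. Scored for every ungapped 8-mer (given with its reverse complement) as E-score (range -0.5 to 0.5; >0.45 counts as bound) and Z-score of median probe intensity. Two replicate arrays (datasets 1 and 2).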
# 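Note: protein at 200 nM in PBS on universal double-stranded arrays.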
row,Sequence,PBM E-score of 8-mer
1,GGAATAAA,-0.172 ± 0.071
2,CGGACCTA,-0.0608 ± 0.061
3,GGGTCCAA,-0.128 ± 0.038
4,ATCATAAA,-0.055 ± 0.0049
5,TAAGTACA,-0.0343 ± 0.055
6,AATGGCCT,-0.0378 ± 0.026
7,GGATGGAA,-0.27 ± 0.083
8,ATCAGCAG,-0.00714 ± 0.041
9,ACAGCGTC,0.081 ± 0.022
10,AGGAGCCT,-0.276 ± 0.094
11,CACTGGAG,-0.148 ± 0.1
12,ACATCCGG,-0.0474 ± 0.027
13,GCTTGGGA,-0.232 ± 0.01
14,CGGACGCC,0.0453 ± 0.042
15,AATTTTAA,-0.0444 ± 0.056
16,GGTTCGCA,0.378 ± 0.0054
17,CTGGCTTA,-0.332 ± 0.03
18,CTGTACCC,-0.14 ± 0.021
19,GGTAAAGA,-0.113 ± 0.037
20,AATGAGTA,-0.0297 ± 0.0081
21,GCGGTGCA,-0.00525 ± 0.019
22,ATAGCCAA,-0.218 ± 0.074

row,Sequence,PBM E-score of 8-mer
1,ATTAAATG,-0.0679 ± 0.074
2,CGTCTGAA,-0.2253 ± 0.0012
3,AAATGCCC,-0.155 ± 0.035
4,ACCTTCCG,0.134 ± 0.0089
5,ACGATTTG,0.142 ± 0.061
6,CTATTAGC,0.0737 ± 0.023
7,AACTGGGT,6e-05 ± 0.095
8,ATCATTTC,-0.204 ± 0.027
9,ATACAACG,-0.084 ± 0.024
10,AGTACAAG,-0.144 ± 0.098
11,AACACCAA,0.356 ± 0.012
12,CGCGTCGA,0.208 ± 0.074
13,ACAGCACG,0.0993 ± 0.0083
14,AAAGGCAC,-0.0612 ± 0.07
15,CTAAAACC,-0.175 ± 0.062
16,CGGCCTAG,-0.0214 ± 0.017
17,ACTACTCA,0.0241 ± 0.08
18,ACGTACGT,0.194 ± 0.11
19,ACCGAGCG,-0.103 ± 0.03
20,AGTACTGG,-0.347 ± 0.0073
21,ACATCGTA,-0.119 ± 0.0033
22,ATTAAAGA,-0.191 ± 0.085

row,Sequence,PBM E-score of 8-mer
1,ATGTTTGC,-0.0213 ± 0.033
2,TCGTTCCA,-0.0334 ± 0.033
3,ACATACGA,-0.067 ± 0.049
4,TCCGTGCA,-0.00022 ± 0.034
5,GTGATGGA,0.239 ± 0.012
6,AGGCCTGG,-0.312 ± 0.031
7,ACACAGCG,0.182 ± 0.013
8,TAGTCCAA,-0.31 ± 0.0073
9,CGTTCCAC,0.0658 ± 0.034
10,CTTAATTA,-0.16 ± 0.025
11,CAGACTAC,-0.259 ± 0.017
12,CAACCTTA,-0.247 ± 0.048
13,ATAGACTC,-0.332 ± 0.0036
14,CAAGCCAA,-0.202 ± 0.061
15,GAGTAGCA,0.063 ± 0.046
16,ACTCACCT,0.291 ± 0.0073
17,AAAGAGCA,-0.128 ± 0.055
18,GTTGCTCA,0.115 ± 0.014
19,GAGTTTCC,-0.213 ± 0.024
20,CGGGACAG,-0.113 ± 0.074
21,AGCGCCAA,0.242 ± 0.023
22,GTTACCAA,0.139 ± 0.035

row,Sequence,PBM E-score of 8-mer
1,ACAGAGTC,-0.121 ± 0.0016
2,CCGAGAGA,-0.0571 ± 0.025
3,CGGACAGC,-0.109 ± 0.0052
4,ACGCGCGA,0.393 ± 0.023
5,AACTCATA,0.033 ± 0.0023
6,AGTTATAT,-0.0883 ± 0.031
7,GTACGAAA,0.135 ± 0.032
8,ACTCTAGG,-0.093 ± 0.0039
9,GAACTATA,-0.192 ± 0.11
10,GAACATTA,-0.0252 ± 0.005
11,ATTGCCTG,-0.225 ± 0.039
12,AGGGCCTG,-0.172 ± 0.0038
13,CCATCACA,0.364 ± 0.035
14,CACGGATG,0.154 ± 0.011
15,AACTGATG,0.102 ± 0.032
16,AAAGGGTA,-0.055 ± 0.054
17,AAGCGCCC,-0.00863 ± 0.0021
18,TCAAATCA,-0.131 ± 0.028
19,CGAGTCTA,-0.213 ± 0.033
20,CAAGGGGA,-0.184 ± 0.0056
